Data taken from the supplement of paper PMC4466236.
Whole data set: some 33,000 sequences, median “E-score (dimensionless, -0.5 to 0.5)” near -0.058, cut for the highest 2% near 0.35. This is one part of the list.

Each sequence was assayed on MvaT (assay: PBM 8-mer E-score (mean of HK and ME arrays) (E-score (dimensionless, -0.5 to 0.5)); higher = stronger relative binding preference; most listed sequences are background and not binding sites).
In short: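 Full-length P. aeruginosa MvaT, with glutathione S-transferase fused to its N-terminus (cloned into pTH6838 by isothermal assembly), was tested by protein binding microarray using a previously described protocol. Two universal double-stranded 60-mer arrays (ME and HK) were used, each with a constant 25-mer primer region and a variable 35-mer region covering all 8-mers. The rank-based 8-mer E-score (-0.5 to 0.5) is the mean of the two arrays, parsed with a custom Python script.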

Sequence	PBM 8-mer E-score
CCAGGCGC	-0.338
AGGCTATG	-0.175
CTTAACGC	0.0119
ACCCCAGG	-0.231
CTGGAACC	-0.182
AACCAGCT	-0.14
AGTCAGAT	-0.0668
GAAGCATC	-0.289
CCAATGGA	-0.208
CAGCTGGC	-0.326
CGTTGACC	-0.113
AGCCGCCG	-0.291
ATACTGAA	0.157
AACACCTG	-0.244
AAGGAACG	-0.228
ATCATACG	0.0687
ACTTCAGG	0.0381
AGAACATA	0.172
ATACGAGC	-0.0077
CATACTGG	-0.015
GTTCTGTA	0.106
CATGCTGA	-0.0933
CAACGCCA	0.032
TTCCCAAA	0.183
TAAAAAGA	0.241

Sequence	PBM 8-mer E-score
ACGTGCGC	-0.18
ATCCGGCC	-0.247
CTTGACAC	-0.095
GCCCTATA	0.00721
CTTGAGCA	-0.103
ACGGCAAT	0.218
CATTTGAC	-0.0544
CCGACGGA	-0.26
GTAGGACA	-0.0384
TCACGTGA	-0.00307
GTCCCAAA	0.121
CTAACTAC	0.187
CAGGCTCG	-0.325
GGAACAAA	0.0729
GAAAATTA	0.304
GCGACTCA	-0.247
AGGCGAGA	-0.0992
AGAATGAG	-0.0894
ACAAGAAA	0.0439
ACCAGGAC	-0.0791
GACACAAA	0.157
CCTTTCTA	-0.107
CGTAGGAC	-0.118
AATCCATA	0.164
CGCGATAC	-0.118

Sequence	PBM 8-mer E-score
CGGAATCC	-0.157
CTCGTGCA	-0.141
CGACTAGA	-0.203
CCAGGCTA	-0.159
ACTCACCG	-0.0979
CCACGTCG	-0.195
AGAATCAC	-0.133
GCTTACTA	-0.131
ACAACGGG	-0.0207
AAAGCTCA	-0.146
AGACAATC	0.049
GAAACCCA	-0.213
CTTAACAA	0.166
AGTCCCGG	-0.245
AGCTGCGG	-0.194
GCGCTATA	0.165
CACGTTAA	0.163
TGAGACCA	-0.135
ATCTGTTG	-0.0508
CTGCACGC	-0.123
AAGCCTAG	-0.113
ACAGATCG	-0.048
AGTAGAGA	0.0385
CTAGGACC	-0.224
CCCGCGTA	-0.177

Sequence	PBM 8-mer E-score
CTCGGTAC	-0.0775
TACCGGAA	-0.14
CCCGACAA	-0.168
AGTATAAA	0.381
CGTCTGTA	-0.0521
GCGCTCAC	-0.258
ACAATGGG	0.0959
GAGCGGGC	-0.324
AGGATGAA	-0.15
ATGGGCAC	-0.0848
CAAAGCAA	0.0614
CGAGCGGC	-0.134
CGATGCCG	-0.167
CCCATCCA	-0.212
GCCGGCCA	-0.205
ACTCAACC	-0.0486
GAGCTAAC	-0.187
AGTCAGTC	-0.156
AATTCCGG	0.0407
ACCCCAAT	-0.055
ACGAACCC	-0.169
CCGAAGAA	0.0125
TATACTCA	0.29
AGTCAGTA	0.0779
ATAATTTC	0.386

Sequence	PBM 8-mer E-score
GCTCCTCA	-0.294
ATAGGAAA	0.131
AGTCCTTC	-0.212
GCCAAACC	-0.0379
ATCCTATC	-0.0369
GTGAGACA	-0.0468
TCTGTCAA	-0.142
ATGTCCGC	-0.087
CTGTCTGA	-0.172
GAATTATC	0.147
CACAAAAC	0.045
CCCCATCC	-0.324
TTAGATAA	0.261
CGTGCATA	0.281
ATAAGGTG	0.105
GACATCGC	-0.221
ATGGTCCA	-0.0412
TCGGACAA	-0.132
CCCTAGGA	-0.335
AGGTACAT	0.0417
CTCGTATC	-0.166
CGGTTTCC	-0.194
CAACAGTC	-0.128
AATCACGA	-0.0277
ACACCGAT	0.0193

Sequence	PBM 8-mer E-score
CTCGCGTC	-0.0727
CAATATAC	0.386
AGTTGACA	0.135
ACCGCATA	0.0599
CCGGCGTC	-0.248
CGTGCTTA	0.0775
ACTATTCT	0.208
GCCATCCC	-0.385
CCTACATC	-0.0297
GCTCATCA	-0.237
ACAGACAC	0.0789
AGAATTGC	0.0325
CAAGCTGC	-0.284
CCAAGGAC	-0.193
CAATAACA	0.283
AGTGCTAC	-0.0841
AGAACGCA	-0.109
TCGATCAA	0.0431
TGAGCAAA	0.0711
ATGGAGAC	-0.0433
GAGCCCAA	-0.212
CATGCACC	-0.0676
CTCGAGTC	-0.187
ATTATATC	0.444
GGGTTGCA	-0.0596

Sequence	PBM 8-mer E-score
AAGATTGC	0.0483
CTGCGTGA	-0.129
GGTATGAA	0.0836
AAAGTTAT	0.36
CCAGATAG	-0.154
CGGTATTC	-0.0073
AAGCTATA	0.196
GTTGCGTA	-0.0344
CGAAATAC	0.0434
CGTAACGC	-0.176
AGGTCAAG	-0.222
CCCGCTTA	0.00273
GCAGCTCC	-0.265
CAGCCATG	-0.163
AGCAAATA	0.238
GGCTCTAA	0.00956
CAAGGGTC	-0.162
GGTTAGAA	-0.0252
TACTAGAA	0.163
AACGGAGT	-0.0613
ACGTAAGC	-0.199
CGAGGTGC	-0.199
